Binding signal data for 14 molecules are collected here from article PMC12136788.

This is one part of the list.

T1: UNK ZnF1-3 (human, UniProt Q9C0B0 31-174)
T1 sequence: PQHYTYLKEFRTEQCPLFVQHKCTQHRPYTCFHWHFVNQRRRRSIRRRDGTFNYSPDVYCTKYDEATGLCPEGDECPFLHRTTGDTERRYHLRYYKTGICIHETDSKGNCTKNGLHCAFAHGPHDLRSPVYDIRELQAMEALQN

B1: 75685096_75687080_2459_CDS_ENSG00000169375_ENST00000360439|human|control|control (ssRNA)
RNA: GGGAGUUCUACAGUCCGACGAUCAAGUGAGAGGUGUGGGCCAACAGGUACACCAGCAUUCUCCUCCGUAGCCUGCUCUUGCCUCUCAUCAUAGAUACUCUCAAUCUCAUUGAGUAAGCUCUUAGACCUCAGGACCUUGGUGUCCAACAGAGGAUUGAGCAUCA
B2: 69811592_69815821_3580_CDS_ENSMUSG00000044308_ENSMUST00000055758|mouse|control|control (ssRNA)
RNA: GGGAGUUCUACAGUCCGACGAUCAAACUCUGCGAGCAAUUUCUGCUGCCUUUCUCUAGCCUUUUGUCGCCUUUCCUCCUUGUCCAGAGUUUUCUUCUCCGCUGCGGUGAUUUUUUUGGGUGGCACAGGAGGGGUCACUUUUCUCAACAGAGGAUUGAGCAUCA
B3: 234758460_234762508_291_CDS_ENSG00000123485_ENST00000411486|human|control|control (ssRNA)
RNA: GGGAGUUCUACAGUCCGACGAUCUUGCACGGAGCCAUCUGUCCUGUCCGCGGGCUUCAUGGAGGAGUCCUGGAUCUCUCCUUCGUUUCUUUCCUUUAUUAGUCUUCCACCCCAAAUUCUCAAUCCCUGUGGCGUCUCGUAGGUCAACAGAGGAUUGAGCAUCA
B4: chr8:30643436:30643437:-_ENSG00000104695_ENST00000221138|hu_mus|motif|central (ssRNA)
RNA: GGGAGUUCUACAGUCCGACGAUCGAAUUCUUAAAAAAUAAAACUCCAACUCUAUAAUCCAUGCCAGUUAAACUUGUUAACGGAAUUUCCAAGUAAGCGCAAAGGAGACGAAGCAGUCAGUGACCCUUUUUGCUUAACCAGUCACAACAGAGGAUUGAGCAUCA
B5: chr7:65705844:65705845:+_ENSG00000169902_ENST00000304842|hu_mus|hu_hu_hu_mus_False|18_68 (ssRNA)
RNA: GGGAGUUCUACAGUCCGACGAUCAAACGGAUCUUUGUUACAUAAAUAAGGUGCCGGCUCCCCAUGUUUAACGAUAACCUCCAGAAGGAAGGCUUGCAUGGCAGAAUCUAGCACUUCAUCAGUAACACCCGCCUCAUCCAAGCGCAACAGAGGAUUGAGCAUCA
B6: chr19:36179134:36179135:+_ENSMUSG00000024800_ENSMUST00000025714|mus_mus|FALSE|FALSE (ssRNA)
RNA: GGGAGUUCUACAGUCCGACGAUCUACUGUUAUUCAUUAUUCACAUGAAGGAUAAAAUAGUUUUUCUCUUAAAGUAUAUCUAAAUUAAUUAAGCUGUUAGUCUUUAAAAAAUGCUUCACUGGGUUUUAUUUGCUGUUUUAAUGGCAACAGAGGAUUGAGCAUCA
B7: chr5:135496556:135496557:+_ENSG00000113658_ENST00000545279|hu_hu|FALSE|FALSE (ssRNA)
RNA: GGGAGUUCUACAGUCCGACGAUCGUUCCUAAACUGAACCAGAAGGCUGUGUUGUGGAUUGAAUUCAUUAUGACGAGGCACUAAUACUGGAGGUAAGACUGGACUCUCCACUCUCUUAUAGUGGUAUGGGUUGAUACAAACUUCCAACAGAGGAUUGAGCAUCA
B8: chr17:56552419:56552420:-_ENSMUSG00000013236_ENSMUST00000086828|mus_mus|mus_mus_mus_hu_False|1_108 (ssRNA)
RNA: GGGAGUUCUACAGUCCGACGAUCAAAGUUUUUUUCUUUUAAAAAAAAUGAAAUGUCACGGGAUACAGUUACACUGAGAGUUUUAAAAGAAAGCUGGAUUCUGGUCCCAGCCCAGUGUCCCCAGGCUGCAGAGCGGGGCAGAGGCAACAGAGGAUUGAGCAUCA
B9: 9435824_9435944_704_3pUTR_ENSG00000205339_ENST00000379719|human|control|control (ssRNA)
RNA: GGGAGUUCUACAGUCCGACGAUCAGAAGAUCUUGAAUAUCUGUUUCUGGAUGAGGACAGACUGAUCAGACUGGUCAGAAAGAAGCUGGAUAAAACGAUCCUUUAGAACUGGCAGAAAAUGCUGCAUUGCUGCUACCAAUGGACCAACAGAGGAUUGAGCAUCA
B10: 26112668_26113596_934_CDS_ENSMUSG00000045039_ENSMUST00000128119|mouse|control|control (ssRNA)
RNA: GGGAGUUCUACAGUCCGACGAUCACUGUGCCACCAACCAGCCCCCUGGUUCUCCCACAAGUGCAGGUCACAGGCUCGUCCCAAGAAUCCAGGUUCACAGCGGCAUGGUCCCAGGGUCGAGGCGCAGGUGCCAUGGCUGCCACACAACAGAGGAUUGAGCAUCA
B11: chr9:120860063:120860064:+_ENSMUSG00000006932_ENSMUST00000007130|mus_mus|motif|central (ssRNA)
RNA: GGGAGUUCUACAGUCCGACGAUCCUGCAUGCCCUCAUCUAGCGUCUCAGGGAACAUGGCAGCUCGGACCCUCUGAGCCCGGGUCAUUGCAUACUGCCCGUCAAUAUCAGCUACUUGCUCUUGCGUGAAGGACUGGGAAAAGCCCAACAGAGGAUUGAGCAUCA
B12: chr6:51416610:51416611:-_ENSMUSG00000004980_ENSMUST00000090002|perfect_dup|FALSE|FALSE (ssRNA)
RNA: GGGAGUUCUACAGUCCGACGAUCCCUAUCAGUAAUUAUCUCAAUGGUAUCAAUUUUUCCAUAUUCCUCAAAGUAAUCUCUAAGGUGAUGUUCCUCAGUAUCUUCUUUAAUUCCGCCAACAAACAGCUUCUUCACAGUUACAUGCAACAGAGGAUUGAGCAUCA
B13: chr8:108204030:108204031:+_ENSMUSG00000005698_ENSMUST00000005841|mus_hu|FALSE|FALSE (ssRNA)
RNA: GGGAGUUCUACAGUCCGACGAUCCUUCUUGGCGGGUGGUGGGGCUGGGGUCACAGGCUGAGGCUCUGGCUCAGGUUCAAUUUCUACGGCAGGCUCCUCCUCAUCCUCAUUGUCGUCCAGAUCUGGUUCAGCAUUUUCACUGUCCAACAGAGGAUUGAGCAUCA
B14: chr3:148802587:148802588:-_ENSG00000071794_ENST00000310053|hu_mus|hu_hu_hu_mus_False|18_48 (ssRNA)
RNA: GGGAGUUCUACAGUCCGACGAUCUCCAACAACUUGUCCUCUCAUAGUUCCAAAUAAAACCAAAUCUUGCUCUUCAUCACUCGUUAGAAAGUCAUCUGGAGGAAUAAUGUCUUGGAAUUCAAAACGUGGCAAGAAAGUUGAGUACAACAGAGGAUUGAGCAUCA

The assay deals with T1, UNK ZnF1-3. Put plainly: nsRBNS (natural sequence RNA bind-n-seq); RBNS binding buffer (assumed for nsRBNS): 25 mM Tris pH 7.5, 150 mM KCl, 3 mM MgCl2, 0.01% Triton X-100, 500 ug/ml BSA, 20 U/ml SUPERase-In, 4 C; UNK is unkempt and MSI1 is Musashi-1; names of the RNAs are library labels; protein concentration not given here; high values mean tight binding.
B1 came in with a binding signal of 0.663 enrichment R.

As for B2, the binding signal was found to be 0.436 enrichment R.

B3 yielded a binding signal of 0.585 enrichment R.

B4 gave a binding signal of 1.07 enrichment R.

Consider B5, for which the binding signal was determined as 0.267 enrichment R.

B6: the binding signal was determined as 2.58 enrichment R.

Turning to B7, the binding signal was found to be 1.44 enrichment R.

Molecule B8 came in with a binding signal of 1.2 enrichment R.

Take B9: the binding signal is 1.9 enrichment R.

B10 displayed a binding signal of 1.45 enrichment R.

For B11, the binding signal came out at 1.26 enrichment R.

The molecule B12 had a binding signal of 1.05 enrichment R.

Consider B13, for which the binding signal was 0.649 enrichment R.

For the molecule B14, the binding signal is 1.23 enrichment R.
